In a collection of fitness landscapes (doi:10.1016/j.celrep.2020.107928):
Whole data set: some 81,000 sequences, median “one-hybrid fitness for binding NBS DNA” near -0.1, cut for the highest 2% near 0.36. This is one part of the list.

B1: Caulobacter ParB omega fusion; a variant is named by its letters at X, in order, B8GW30 (parent)
chain: MESVVVGEPGMSEGRRGLGRGLSALLGEVDAAPAQAPGEQLGGSREAPIEILQRNPDQPRRTFREEDLEDLSNSIREKGVLQPILVRPSPDTAGEYQIVAGERAWRAAQRAGLKTVPIMVRELDDLAVLEIGIIENVQRADLNVLEEALSYKVLMEKFERTQENIAQTIGKSXSHVANXMRLLXLPDEVQSYLVSGELTAXHARAIAAAADPVALAKQIIEGGLSVRETEALARKAPNLSAGKSKGGRPPRVKDTDTQALESDLSSVLGLDVSIDHRGSTGTLTITYATLEQLDDLCNRLTRGI

Variants of: B1
Assay: one-hybrid fitness for binding NBS DNA (the Noc-binding site; scaled: cognate 1, non-cognate 0); higher = stronger binding
Details: with NBS DNA site
Outline: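 Pre- and post-selection plasmids were Illumina-sequenced, three replicate libraries were pooled, and any variant with under 10 reads was removed. The libraries were Caulobacter ParB with four specificity codons randomised, selected in E. coli USO through a HIS3 reporter whose site is 19 bp from the promoter. Cells grew 48 hours at 37°C on M9 without histidine, with 0.1 mM IPTG and 5 mM 3-AT. Fitness is the log change in variant-to-wild-type read ratio, rescaled against cognate and non-cognate.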
TINY was tested, and the “one-hybrid fitness for binding NBS DNA” value was ≤ 0.2. HILR was tested, and the “one-hybrid fitness for binding NBS DNA” value was ≤ 0.2. With SQPR the “one-hybrid fitness for binding NBS DNA” value was ≤ 0.2. ESVV was tested, and the “one-hybrid fitness for binding NBS DNA” value was ≤ 0.2. For NYFA, the “one-hybrid fitness for binding NBS DNA” value was ≤ 0.2. For LKSS, the “one-hybrid fitness for binding NBS DNA” value was ≤ 0.2. For HVQI, the “one-hybrid fitness for binding NBS DNA” value was ≤ 0.2. In the case of ASKR, the “one-hybrid fitness for binding NBS DNA” value is reported as 0.209. For CARL, the “one-hybrid fitness for binding NBS DNA” value was ≤ 0.2. In the case of EHRK, the “one-hybrid fitness for binding NBS DNA” value is reported as ≤ 0.2. In the case of PIRG, the “one-hybrid fitness for binding NBS DNA” value is reported as ≤ 0.2. VSCY was tested, and the “one-hybrid fitness for binding NBS DNA” value was ≤ 0.2. With MRAV the “one-hybrid fitness for binding NBS DNA” value was ≤ 0.2. NESC was tested, and the “one-hybrid fitness for binding NBS DNA” value was ≤ 0.2. With RNPE the “one-hybrid fitness for binding NBS DNA” value was ≤ 0.2. For HQMG, the “one-hybrid fitness for binding NBS DNA” value was ≤ 0.2. In the case of KIWS, the “one-hybrid fitness for binding NBS DNA” value is reported as ≤ 0.2. In the case of FRTS, the “one-hybrid fitness for binding NBS DNA” value is reported as ≤ 0.2. With DRMY the “one-hybrid fitness for binding NBS DNA” value was ≤ 0.2. In the case of RNHN, the “one-hybrid fitness for binding NBS DNA” value is reported as ≤ 0.2. For HTYS, the “one-hybrid fitness for binding NBS DNA” value was ≤ 0.2. In the case of ILAG, the “one-hybrid fitness for binding NBS DNA” value is reported as ≤ 0.2. PLKY was tested, and the “one-hybrid fitness for binding NBS DNA” value was ≤ 0.2. In the case of KTAG, the “one-hybrid fitness for binding NBS DNA” value is reported as ≤ 0.2. In the case of AQLI, the “one-hybrid fitness for binding NBS DNA” value is reported as ≤ 0.2. In the case of AVNG, the “one-hybrid fitness for binding NBS DNA” value is reported as ≤ 0.2. For VGNG, the “one-hybrid fitness for binding NBS DNA” value was ≤ 0.2. In the case of WFNT, the “one-hybrid fitness for binding NBS DNA” value is reported as ≤ 0.2. KRRR was tested, and the “one-hybrid fitness for binding NBS DNA” value was 0.787. QRGM was tested, and the “one-hybrid fitness for binding NBS DNA” value was 0.436. In the case of SGAF, the “one-hybrid fitness for binding NBS DNA” value is reported as ≤ 0.2. In the case of VTQI, the “one-hybrid fitness for binding NBS DNA” value is reported as ≤ 0.2. With YQSV the “one-hybrid fitness for binding NBS DNA” value was ≤ 0.2. For WTLF, the “one-hybrid fitness for binding NBS DNA” value was ≤ 0.2. For CWIS, the “one-hybrid fitness for binding NBS DNA” value was ≤ 0.2. With IRFC the “one-hybrid fitness for binding NBS DNA” value was ≤ 0.2. FSES was tested, and the “one-hybrid fitness for binding NBS DNA” value was ≤ 0.2. In the case of QIPN, the “one-hybrid fitness for binding NBS DNA” value is reported as ≤ 0.2. For CNKY, the “one-hybrid fitness for binding NBS DNA” value was ≤ 0.2. In the case of QYLL, the “one-hybrid fitness for binding NBS DNA” value is reported as ≤ 0.2. For HCIG, the “one-hybrid fitness for binding NBS DNA” value was ≤ 0.2. For MPSC, the “one-hybrid fitness for binding NBS DNA” value was ≤ 0.2. In the case of DIQV, the “one-hybrid fitness for binding NBS DNA” value is reported as ≤ 0.2. For VRNL, the “one-hybrid fitness for binding NBS DNA” value was ≤ 0.2. For SRVK, the “one-hybrid fitness for binding NBS DNA” value was ≤ 0.2. With HFPG the “one-hybrid fitness for binding NBS DNA” value was ≤ 0.2. With RAYI the “one-hybrid fitness for binding NBS DNA” value was ≤ 0.2. With WWRS the “one-hybrid fitness for binding NBS DNA” value was ≤ 0.2. For EWTV, the “one-hybrid fitness for binding NBS DNA” value was ≤ 0.2. TWPG was tested, and the “one-hybrid fitness for binding NBS DNA” value was ≤ 0.2. With WAMY the “one-hybrid fitness for binding NBS DNA” value was ≤ 0.2. With TCAG the “one-hybrid fitness for binding NBS DNA” value was ≤ 0.2. With SRSY the “one-hybrid fitness for binding NBS DNA” value was ≤ 0.2. With FTSF the “one-hybrid fitness for binding NBS DNA” value was ≤ 0.2. With PFAH the “one-hybrid fitness for binding NBS DNA” value was ≤ 0.2. In the case of LRGS, the “one-hybrid fitness for binding NBS DNA” value is reported as ≤ 0.2. In the case of KPVM, the “one-hybrid fitness for binding NBS DNA” value is reported as ≤ 0.2. With LCSL the “one-hybrid fitness for binding NBS DNA” value was ≤ 0.2. IPKT was tested, and the “one-hybrid fitness for binding NBS DNA” value was ≤ 0.2. With HGFM the “one-hybrid fitness for binding NBS DNA” value was ≤ 0.2. For TCGS, the “one-hybrid fitness for binding NBS DNA” value was ≤ 0.2. In the case of RHNM, the “one-hybrid fitness for binding NBS DNA” value is reported as ≤ 0.2. For DHPF, the “one-hybrid fitness for binding NBS DNA” value was ≤ 0.2. In the case of MNST, the “one-hybrid fitness for binding NBS DNA” value is reported as ≤ 0.2. With DISR the “one-hybrid fitness for binding NBS DNA” value was ≤ 0.2. QHAC was tested, and the “one-hybrid fitness for binding NBS DNA” value was ≤ 0.2. VCVI was tested, and the “one-hybrid fitness for binding NBS DNA” value was ≤ 0.2. DSMS was tested, and the “one-hybrid fitness for binding NBS DNA” value was ≤ 0.2. With AHTH the “one-hybrid fitness for binding NBS DNA” value was ≤ 0.2. For CVFT, the “one-hybrid fitness for binding NBS DNA” value was ≤ 0.2. For DHQS, the “one-hybrid fitness for binding NBS DNA” value was ≤ 0.2. For MEQS, the “one-hybrid fitness for binding NBS DNA” value was ≤ 0.2. With QSVV the “one-hybrid fitness for binding NBS DNA” value was ≤ 0.2. In the case of KTAW, the “one-hybrid fitness for binding NBS DNA” value is reported as ≤ 0.2. For GAAM, the “one-hybrid fitness for binding NBS DNA” value was ≤ 0.2. For MYTA, the “one-hybrid fitness for binding NBS DNA” value was ≤ 0.2.
